Test results taken from the RNAGym collection of RNA variant scans (doi:10.1073/pnas.2313332121).
This sample is rich in variants without activity.

B1: TPR 5TU (parent)
chain: GGAUCUUCUCGAUCUAACAAAAAAGACAAAUCUGCCACAAAGCUUGAGAGCAUCUUCGGAUGCAGAGGCGGCAGCCUUCGGUGGCGCGAUAGCGCCAACGUUCUCAACUAUGACACGCAAAACGCGUGCUCCGUUGAAUGGAGUUUAUCAUG

Variants of: B1
Experiment: polymerase ribozyme fitness, log enrichment relative to wild type (log ratio); higher = more active; in vitro selection for triplet polymerase activity
Outline: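 For each subunit of a heterodimeric triplet polymerase ribozyme, a mutant library was built by PCR and transcribed, then taken through a single in vitro selection round in triplicate. Selection involved annealing to a biotinylated primer, the partner subunit and triplets, incubation frozen at −7 °C, gel excision of extended constructs, capture on streptavidin beads and RT-PCR. Genotypes were retained after Illumina sequencing of inputs and outputs only with ≥10 input reads and ≥1 read in each output. Fitness is defined as the logarithm of a genotype's enrichment relative to wild-type enrichment, using inverse-variance-weighted averages across replicates, with the logarithm taken to base 2.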
With GGAUCUUCUCGAUCUAACAAAAAAGACAAAUCUGCCACAAAGCUUGAGAGCAUCUUCUGAUGCAGAGGCGGCAGCCUUCGGUCGCGCGAUAGCGCCAACGUUCUCAACUAUGACACGCAAAACGCGUGCUCCGUUGAAUGGAGUUUAUCAUG [G58U G83C] the “polymerase ribozyme fitness (log ratio)” value was -0.165. With GGAUCUUCUCGAUCUAACAAAAAAGACAAAUCUGCCACAAAGCUUGAGAGCAUCUUCGAAUGCAGAGGCGGCAGCCUUCGGUGGUGCCAUAGCGCCAACGUUCUCAACUAUGACACGCAUAAGGCGUGCUCCGUUGAAUGGAGUUUAUCACG [G59A C85U G88C A120U C123G U151C] the “polymerase ribozyme fitness (log ratio)” value was at most -4.2. With GGAUCUUCUCGAUCUAACAAAAAAGACAAAUCUGCCACAAAGCUUGAGAGCAUCUUCGAAUGCAGAGGCGGCAGCCUUCGGUGGCGCGAUAGUGCCAACGUUCGCAACUAUGACACGCAAAACGCGUGCUCCGUUGAAUGGAGUUUACCAUG [G59A C93U U104G U148C] the “polymerase ribozyme fitness (log ratio)” value was at most -4.2. With GGAUCUUCUCGAUCUAACAAAAAAGACAAAUCUGCCACAAAGCUUGAGAGCAUCUUCGAAUGCAGAGGCGGCAGCCUUCGGUGGCGCGAUAGCGCCAACGUUCUCAACUAUGACCAGCAAAACGCGUGCUCCGUUGAGUGGAGUUUAUCAUG [G59A A115C C116A A138G] the “polymerase ribozyme fitness (log ratio)” value was at most -4.2. In the case of GGAUCUUCUCGAUCUAACAAAAAAGACAAAUCUGCCACAAAGCUUGAGAGCAUCUUCUGAUGCAGAGGCGGCAGCCUUCGGUGGCAAGAUAGCGCCAACGUUCUCAACUAUGACACGCAAAACGCGUGCUCCGUUGAAUGGAGUUUAUCAUG [G58U G86A C87A], the “polymerase ribozyme fitness (log ratio)” value is reported as at most -4.2. With GGAUCUUCUCGAUCUAACAAAAAAGACAAAUCUGCCACAAAGCUUGAGAGCAUCUUCGAAUGCAGAGGCGGCAGCCUUCGGUGGCGCGAUAGCGCCAAUGUUCGCAUCUAUGACACGCAAAACGCGUGCUCCGGCGAAUGGAGUUUAUCAUG [G59A C99U U104G A107U U134G U135C] the “polymerase ribozyme fitness (log ratio)” value was at most -4.2. With GGAUCUUCUCGAUCUAACAAAAAAGACAAAUCUGCCACAAAGCUUGAGAGCAUCUUCGAAUGCAGAGGCGGCAGCGUUCCGUGGCGCGAUAGCGCCAACGUUCUCAACUAUGACAGGGAAAACGCGUGCUCCGUUGAAUGGAGUUUAUCAUG [G59A C76G G80C C116G C118G] the “polymerase ribozyme fitness (log ratio)” value was at most -4.2. For GGAUCUUCUCGAUCUAACAAAAAAGACAAAUCUGCCACAAAGCUUGAGAGCAUCUUCGAAUGCAGAGGCGGCAGCCUUCGGUGACGCGAUAGCGCCAACGUUCUCAACUAUGACACGCAAAACGCGUGCUCCGUUGAAUGGAGUUUAUCAUG [G59A G84A], the “polymerase ribozyme fitness (log ratio)” value was -2.24. For GGAUCUUCUCGAUCUAACAAAAAAGACAAAUCUGCCACAAAGCUUGAGAGCAUCUUCGAAUGCAGAGGCGGCAGCCUUCGGUGGCGCGAUAGUGCCAACGUUCUCGACUAUGACACGCAAGACGCGUGCUCCGUUGAAUAUAGUUUAUCAUG [G59A C93U A106G A121G G140A G141U], the “polymerase ribozyme fitness (log ratio)” value was at most -4.2. In the case of GGAUCUUCUCGAUCUAACAAAAAAGACAAAUCUGCCACAAAGCUUGAGAGCAUCUUCUUAUGCAGAGGCGGCAGCCUUCGGUGGCGAGAUAGCGCCAACGUUCUCAACUAUGACACGCAAAACGCGUGCUCCGUUGAAUGAAGUUUAUCAUG [G58U G59U C87A G141A], the “polymerase ribozyme fitness (log ratio)” value is reported as at most -4.2. With GGAUCUUCUCGAUCUAACAAAAAAGACAAAUCUGCCACAAAGCUUGAGAGCAUCUUCGAAUGCAGAGGCGGCAGCCUUCGGUGGCGCGAUAGCGCCAACGUUCUCAACUAUGACACGCAAAUCGCGUGCUCCGUUGAAUGGAGUUUAUCAUG [G59A A122U] the “polymerase ribozyme fitness (log ratio)” value was 0.148. In the case of GGAUCUUCUCGAUCUAACAAAAAAGACAAAUCUGCCACAAAGCUUGAGAGCAUCUUCGAAUGCAGAGGCGGCAGCCUUCGGUGGCGCGAUAGCGCCAACGUUUUCAUGUAUGACACGCAAAACGCGUGCUCCGUUGAAUGGAGUAUAUCAUG [G59A C103U A107U C108G U145A], the “polymerase ribozyme fitness (log ratio)” value is reported as at most -4.2. In the case of GGAUCUUCUCGAUCUAACAAAAAAGACAAAUCUGCCACAAAGCUUGAGAGCAUCUUCUGAUGCAGAGGCGGCAGCCUUCGGUGGCGCGAUAACGCCAACGUUCUCAACUAUGACACGCAAAACGCGUGCUCCGUUGAAUGGAGUUUAUCAUG [G58U G92A], the “polymerase ribozyme fitness (log ratio)” value is reported as -2.51. With GGAUCUUCUCGAUCUAACAAAAAAGACAAAUCUGCCACAAAGCUUGAGAGCAUCUUCGAAUGCAGAGGCGGCAGCCUUCGGUGGCGCGAUAGCGCCAACGUUCUCAACUAUGACACGCAAAACGCGUGCUCCGUUGACUGGAGUUUAUCAUG [G59A A138C] the “polymerase ribozyme fitness (log ratio)” value was at most -4.2. For GGAUCUUCUCGAUCUAACAAAAAAGACAAAUCUGCCACAAAGCUUGAGAGCAUCUUCGAAUGCUGAGGCGGCAGCCUUCGGUGGAGCGAUAACGCCAACGUUCUCAACUAUGACACGCAAAACGCGUGCUCCGUUGAAUGGAGCUUAUCAUG [G59A A64U C85A G92A U144C], the “polymerase ribozyme fitness (log ratio)” value was at most -4.2. For GGAUCUUCUCGAUCUAACAAAAAAGACAAAUCUGCCACAAAGCUUGAGAGCAUCUUCGAAUGCAGAGGCGGCAGCCUUCGGUGGCGCGAUAGCGCCAACGUUCUCAACUAUGACACGCAAAACGCGUGCUCCGUUGAAUGGGGUUUAUCAUG [G59A A142G], the “polymerase ribozyme fitness (log ratio)” value was -0.65. For GGAUCUUCUCGAUCUAACAAAAAAGACAAAUCUGCCACAAAGCUUGAGAGCAUCUUCUGAAGCAGAGGCGGCAGCCUUCGGUGGCGCGAUAGCGCGAACGUUCUCACCGAUGACACGCAAAACGCGUGCUCCGUUGAAUGGAGUUUAUCAUG [G58U U61A C96G A107C U109G], the “polymerase ribozyme fitness (log ratio)” value was at most -4.2. In the case of GGAUCUUCUCGAUCUAACAAAAAAGACAAAUCUGCCACAAAGCUUGAGAGCAUCUUCGAAUGCACAGGCGGCAGCCUUCGGUGGCGCGAUCGCGCCAACGUUCUCAACUAUGACACACAAAACGCGUGCUCCGUUGAAUCGAGUUUAUCAUG [G59A G65C A91C G117A G140C], the “polymerase ribozyme fitness (log ratio)” value is reported as at most -4.2. With GGAUCUUCUCGAUCUAACAAAAAAGACAAAUCUGCCACAAAGCUUGAGAGCAUCUUCUGAUGCAGAGGCGGCAGCCUUCGGUGGCGCGAUAGCGCCAACGUUCUCAACUAUGACACGCAAAACGCGGGCUCCGUUGAAUGCAUUUUAUCAUG [G58U U127G G141C G143U] the “polymerase ribozyme fitness (log ratio)” value was at most -4.2.
